# PubChem BioAssay AID588855 (National Center for Advancing Translational Sciences (NCATS), 2011)
# Values joined by “and” are separate entries in the source; they are usually repeats but may differ in a detail not shown here. Identical values can stand only once. The campaign covered roughly 410,000 compounds. About 5,000 (1.2%) were called active. This list was built around the results that the source calls inconclusive (neither active nor inactive); the mix of calls is not that of the screen. Calls follow the shape of the dose curve; as a rule, active = well fitted inhibition curve with a large enough effect; inconclusive = small, poorly fitted or top-dose-only effect; inactive = no such curve, though single readings can be large or run the other way. Where the call is inconclusive, the potency comes from a doubtful curve fit.
# Test: qHTS for Inhibitors of TGF-b; also: nearly all actives have a fitted effect of over 65% in size
# Conditions: HepG2 CAGA-GFP TGF-b/SMAD3 reporter, GFP fluorescence, 18 h, TGF-beta stimulated, 500 pg/mL final; series mostly up to 46.1 µM
# How it was run: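 GFP signal (ex488/em500-530) from TGF-beta-stimulated HEPG2 CAGA-GFP cells, 500 pg/mL final, 18 h at 37 degrees C in DMEM plus 1% FBS, normalized to unstimulated and DMSO-stimulated controls.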
# Potency is read from the fitted curve at half-maximal effect; tags tell the direction and shape of the fitted curve.
row,Compound,Potency
1,O=C(Nc1ccc(S(=O)(=O)N2CCCCC2)cc1)c1ccc(CN2CCOCC2)cc1,"inconclusive: 0.501 µM [inhibitor, full curve, poor fit]"
2,CC(C)(C)OC(=O)N1CCC[C@H]1c1nnc(SCc2ccc(Cl)cc2)o1,"inconclusive: 35.5 µM [inhibitor, single point]"
3,COc1ccc(CCNC(=O)CCc2c(C)c3cc4c(C)coc4cc3oc2=O)cc1,inactive
4,Cc1cccc(Nc2nc(N)c([N+](=O)[O-])c(NCc3ccccc3)n2)c1,"inconclusive: 25.1 µM [inhibitor, single point]"
5,CC1Cc2cc(S(=O)(=O)CCC(=O)Nc3ccc(Cl)cc3F)ccc2N1C(=O)C1CC1 (centres undefined),"inconclusive: 3.55 µM [inhibitor, partial curve, poor fit]"
6,CCC(C(=O)Nc1cccnc1)n1c(=O)[nH]c2ccccc2c1=O (centres undefined),inactive
7,CC(Oc1ccc(Cl)cc1Cl)C(=O)NCCC1=CCCCC1 (centres undefined),"inconclusive: 31.6 µM [inhibitor, single point]"
8,S=C(NC1CCCCC1)N1CCOCCOCCN(C(=S)NC2CCCCC2)CCOCCOCC1,"inconclusive: 14.1 µM [inhibitor, single point]"
9,Cc1cc(C)c2oc(-c3cc(NC(=O)Cc4ccccc4)ccc3Cl)nc2c1,"inconclusive: 1.58 µM [inhibitor, full curve]"
10,CC(O)(c1cccc(F)c1)c1nc(-c2ccc(S(C)(=O)=O)cc2)cs1 (centres undefined),"inconclusive: 35.5 µM [inhibitor, single point]"
11,COc1cccc(Nc2nc(N)nc(-c3oc4ccccc4c3C)n2)c1,"inconclusive: 17.8 µM [inhibitor, single point]"
12,O=C(Nc1ccccc1)C1=C[C@H](c2ccc(Br)cc2)C[C@H](OCc2ccc(CO)cc2)O1,"inconclusive: 35.5 µM [inhibitor, single point]"
13,COc1cccc(-c2nc(N3CCCCC3)c3ccccc3n2)c1O,active: 11.2 µM
14,OC(COc1ccc(Cl)cc1)CN1CCC(Cc2ccccc2)CC1 (centres undefined),"inconclusive: 31.6 µM [inhibitor, single point]"
15,O=S(=O)(c1cccc(C(F)(F)F)c1)N1CCC(Oc2ccc(-n3cnnn3)cc2)CC1,"inconclusive: 5.01 µM [inhibitor, full curve]"
16,Cn1cc(C(=O)CCl)c2ccccc21,active: 12.6 µM
17,Clc1cccc(CSc2nccn2-c2ccccc2)c1,"inconclusive: 22.4 µM [inhibitor, single point]"
18,CO[C@@]12[C@@H]3N[C@@H]3CN1C1=C(C(=O)C(N)=C(C)C1=O)[C@@H]2COC(N)=O,"inconclusive: 35.5 µM [inhibitor, partial curve, poor fit]"
19,CNC[C@@H]1Oc2cc(Br)ccc2S(=O)(=O)N([C@@H](C)CO)C[C@H]1C,"inconclusive: 3.55 µM [inhibitor, single point]"
20,O=C(CCN1CCN(Cc2ccccc2)CC1)NNC(=O)Nc1cccc(C(F)(F)F)c1,inactive
21,Cc1c(C(=O)OC2CCCCC2)[nH]c2c1C(=O)CC(c1ccccc1)C2 (centres undefined),inactive
22,O=C(/C=C/c1ccccc1)NC(NC(=S)Nc1cccc(O)c1)C(Cl)(Cl)Cl (centres undefined),"inconclusive: 11.2 µM [inhibitor, partial curve, poor fit]"

row,Compound,Potency
1,Cc1ccc(-c2csc(Nc3ccccc3)[n+]2CCc2ccccc2)cc1,"inconclusive: 35.5 µM [inhibitor, single point]"
2,CCN1C(=O)[C@H]2[C@H]3CN=C(SCC(=O)c4ccccc4)N3[C@@](C)(C(=O)OC)[C@H]2C1=O,inactive
3,O=C(CBr)c1ccc(Oc2ccc(C(=O)C[n+]3cccc(Br)c3)cc2)cc1,inactive
4,Cc1ccc(OCC(=O)N(Cc2ccc(Cl)cc2)CC2CCCO2)cc1C (centres undefined),"inconclusive: 0.631 µM [inhibitor, full curve, poor fit]"
5,CC1CCCCN1C(=O)COC(=O)c1ccc(S(C)(=O)=O)c([N+](=O)[O-])c1 (centres undefined),"inconclusive: 3.98 µM [inhibitor, full curve, poor fit]"
6,CC1SC(C)C(=O)N(CC(=O)Nc2ccc3c(c2)OCO3)C1=O (centres undefined),"inconclusive: 12.6 µM [inhibitor, partial curve, poor fit]"
7,CN(CC(=O)Nc1cccc(F)c1)CC(=O)Nc1ccccc1[N+](=O)[O-],"inconclusive: 1.26 µM [inhibitor, full curve, poor fit]"
8,Oc1c(C(c2ccccn2)N2CCCCC2)cc(Cl)c2cccnc12 (centres undefined),active: 7.94 µM
9,Cc1onc(-c2ccccc2Cl)c1C(=O)NCc1ccccn1,inactive
10,Cc1ccc2c(C)c(C(=O)N3CCC(c4nc5ccccc5s4)CC3)oc2c1C,"inconclusive: 17.8 µM [inhibitor, partial curve, poor fit]"
11,COc1ccccc1CNC(=O)CN(C)Cc1ccc(SC)cc1,"inconclusive: 35.5 µM [inhibitor, single point]"
12,COc1ccc(OCCOc2ccc(S(=O)(=O)N3CCCC3)cc2C(N)=O)cc1,"inconclusive: 20 µM [inhibitor, single point]"
13,Nc1nc(Nc2ccccc2)nc(NCc2ccccc2)c1[N+](=O)[O-],inactive
14,O=[N+]([O-])c1ccc(O)c(/C=N/Nc2ccccn2)c1,"inconclusive: 12.6 µM [inhibitor, partial curve, poor fit]"
15,CCC(C)c1ccc(NC(=O)COc2c(F)c(F)c(C(F)(F)F)c(F)c2F)cc1 (centres undefined),"inconclusive: 17.8 µM [inhibitor, partial curve, poor fit]"
16,C=CCOc1ccccc1CN(C(=O)CCl)c1ccc2c(c1)OCO2,"inconclusive: 15.8 µM [inhibitor, single point]"
17,CCN1CCN(Cc2ccc(NC(=O)c3cc(NC(=O)c4cc(C)on4)cc(OC)c3)cc2C(F)(F)F)CC1,"inconclusive: 35.5 µM [inhibitor, single point] and inconclusive: 15.8 µM [inhibitor, single point]"
18,COc1ccc(-c2ccc3c(c2)S(=O)(=O)c2cccc(C(=O)NC4CCCC4)c2C3=O)cc1OC,"inconclusive: 35.5 µM [inhibitor, single point]"
19,COc1cccc(-c2nc(CS(=O)(=O)CC(=O)N3CCN(C4CCCCC4)CC3)c(C)o2)c1,"inconclusive: 5.01 µM [inhibitor, partial curve]"
20,CCc1ccc(NC(=O)CNC(=O)[C@@H]2Cc3ccccc3CN2C(=O)OC(C)(C)C)cc1,"inconclusive: 22.4 µM [inhibitor, single point]"
21,CCCCCCSc1cccc(-c2nc3ccccn3c2NCc2ccccc2)c1,"inconclusive: 22.4 µM [inhibitor, single point]"
22,CC(C)(C)[C@H]1COC(=O)[C@@H](NC(=O)OCC2c3ccccc3-c3ccccc32)C/C=C\C[C@@H](CC(=O)N[C@@H](CO)Cc2ccccc2)C(=O)N1,"inconclusive: 25.1 µM [inhibitor, single point]"

row,Compound,Potency
1,CC1(C(=O)Nc2ccc3ccccc3c2)CCC(=O)N1C1CC1 (centres undefined),inactive
2,COc1ccc(NC(=O)c2ccc(-c3ccccc3)cc2)cc1S(=O)(=O)N1CCOCC1,inactive
3,CC(C)(C)OC(=O)COc1cc(OCC(=O)OC(C)(C)C)c2c(=O)cc(-c3ccccc3)oc2c1,"inconclusive: 35.5 µM [inhibitor, single point]"
4,O=c1c(-c2cc(-c3ccc(Cl)cc3)nc3c2COc2ccccc2-3)coc2ccccc12,inactive
5,O=C(c1cnn(-c2ccccc2)c1-n1cccc1)N1CCN(C2CCCCC2)CC1,inactive
6,COc1ccc(C(=O)NN(C)c2nc(-c3ccccc3)nnc2C(F)(F)F)cc1,inactive
7,Oc1cccc(C=NNc2ccccn2)c1,"inconclusive: 0.316 µM [inhibitor, partial curve, poor fit]"
8,CC(=O)c1c(C)nc(Nc2nc(C)c3cc(C)ccc3n2)nc1C,"inconclusive: 3.55 µM [inhibitor, partial curve]"
9,O=C(O)CCn1c(-c2ccccn2)nc2ccccc21,inactive
10,COc1ccc(/C=C/C(=O)Nc2ccccc2C(=O)NCC(c2ccc(OC)cc2)N(C)C)cc1 (centres undefined),inactive
11,CC1(C)CC(=O)C2=C(C1)OC(N)=C(C#N)C2c1cn(-c2ccccc2)nc1-c1ccccc1 (centres undefined),"inconclusive: 35.5 µM [inhibitor, single point]"
12,COc1ccc(Cl)cc1NC(=O)CN1c2ccccc2CC1C (centres undefined),"inconclusive: 2.51 µM [inhibitor, full curve]"
13,CC[C@]12c3[nH]c4ccc(Cl)cc4c3CCN1C(=O)[C@@H](CC(=O)NC/C=C(\C)CCC=C(C)C)C[C@@H]2C(=O)N1CCN(C(=O)C2CC2)CC1,active: 10 µM
14,Cc1cc(F)ccc1NC(=O)C(C(C)C)N1Cc2ccccc2C1=O (centres undefined),"inconclusive: 5.62 µM [inhibitor, single point]"
15,COc1ccc(CCNCc2c(-c3ccccc3)n(C)c3ccccc23)cc1,"inconclusive: 22.4 µM [inhibitor, single point]"
16,Fc1cccc(/C=N/Nc2ncnc3nc[nH]c23)c1,"inconclusive: 14.1 µM [inhibitor, partial curve, poor fit]"
17,O=C(/C=C1\C(=O)Nc2ccccc21)/C=C1\C(=O)Nc2ccccc21,"inconclusive: 25.1 µM [inhibitor, partial curve, poor fit]"
18,CCOc1ccc(NC(=O)N(Cc2ccc(CC)cc2)Cc2cn[nH]c2-c2ccc(OC)cc2)cc1,active: 8.91 µM
19,Cc1ccc(C(O)(C(=O)NNc2ccccn2)c2ccc(C)cc2)cc1,inactive
20,CCOC(=O)c1cc(-c2ccccc2)n(CCC(=O)N2CCN(c3ccccn3)CC2)c1C,inactive
